# Assay results published in PMC10726135.
# The other results are listed elsewhere or left out. At the low end of the ranking the order means little. Measured with an extract: partners may take part in the binding.
# Molecular target: T1, HNF4alpha2 (COS-7 nuclear extract) (UniProt P41235)
# T1 sequence: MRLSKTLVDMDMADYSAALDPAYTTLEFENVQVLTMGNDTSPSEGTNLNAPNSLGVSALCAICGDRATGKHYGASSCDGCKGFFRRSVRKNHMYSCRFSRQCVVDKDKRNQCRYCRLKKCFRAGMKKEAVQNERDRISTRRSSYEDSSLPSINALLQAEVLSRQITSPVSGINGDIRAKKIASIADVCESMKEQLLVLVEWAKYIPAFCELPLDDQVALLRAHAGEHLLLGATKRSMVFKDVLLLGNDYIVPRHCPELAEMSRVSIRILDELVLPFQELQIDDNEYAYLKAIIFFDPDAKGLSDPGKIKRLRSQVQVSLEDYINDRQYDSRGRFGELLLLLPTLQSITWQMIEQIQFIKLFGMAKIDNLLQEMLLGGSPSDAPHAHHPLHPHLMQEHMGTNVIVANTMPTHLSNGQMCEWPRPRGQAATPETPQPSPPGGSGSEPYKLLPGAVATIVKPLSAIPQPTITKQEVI
# Assay: protein-binding microarray
# Details: COS-7 nuclear extract on double-stranded Agilent 4x180k PBM; binding buffer, salt, pH and temperature not given; high values mean tight binding; double strand, one strand shown; sequences stand for … in …GCCTAGGGAGATTAGAGTATCGGTCGA
row,Sequence,binding signal (log2 normalized intensity)
1,GAAGAAAACAATGACCTCTGCACCCTTCCC,4.1
2,CTGCTGGCTGAGCATCACCAGTGCAGCTGA,-1.01
3,TCTGGTAAATTTCTAACACTCCCCAGGACA,2.9
4,TCTAGAAGAGGTTAAAGACCTTTGGGTAGG,2.02
5,CATGTGGGTCCAAAGAACATTGCATTCCTT,1.55
6,CTGCAGAGGGACTGACTCCCTTTTCAACAA,-1.18
7,AACCAAAGGATTATTACATGTTTACCCACA,0.244
8,GGGCAAATGGAAGAATCACAGTGTGGGGCA,-0.192
9,AGTTTTCTCTGTCCCAAGAGCAAGAAGGTC,1.81
10,TCAGAAAACCCACGCCCACCCTATTGATGC,2.81
11,ACCCAGGTATGACAAGCATGCACTGGGGTT,-0.879
12,TGGTAAGTGCAAGGCCCAGCTAGAAGCAGT,-1.06
13,CAGGATCCAAGATCCAACTCTGAAGATTCA,-1.16
14,ACTGATAAGGTTCCAGCAAAGAGATTAGGA,-1.03
15,CTTTCTTTGTCTGTGTAGACTCATCTGGTG,1.87
16,ACATTGTCCATCACCTGGCTCTGAAAAACA,-1.22
17,AGAGGTGAGAGCAGAATGAGCAAGGTGGGT,0.0131
18,TTCTGCTTCTTCTCATTCTTGGAATAAGCA,-1.11
19,AGCTTCAAAGGACAGGCTGACTATCACTGG,-1.12
20,CGGTTCCGGGCGGCAGCACAAGGCGGTAGC,-1.14
21,ACACAGCTTGGAGCTCCTTGTGAGCAGGAT,-1.07
22,AAGGGTAAAGATTATGAACTAATTTGTCTT,-0.796
23,TCGGTTTTCAAATGAACCCGGCAGGCGGGA,1.82
24,AGATGTAAACATCATTCACGTGCCTGAGAT,-1.12
25,CATACAGGCCAGCTGTCTGGTTTGACCTTA,5.34

row,Sequence,binding signal (log2 normalized intensity)
1,ACTGCAACCTGATAAGATTTTAGAAGTCAC,-1.16
2,GTGTCAGAGAAGGAGCCAGAGCTTTGGGAA,-1.3
3,GGAAACTCCATTTCCTTCTAGCTCCCCAAT,3.53
4,CAGGATTACTATAGGTTCTACTCTCCCCAG,2.14
5,ACCAGACAAGATCAATCAATTTACCTCTGC,-1.27
6,TGGGAACTGCGGACATAGCTTGCCACAGCA,-1.21
7,TGCTTGTCTTGGTTGTAGAAGGCTTAAGAT,1.01
8,CCTCCCCCCTTGGCTACATGTTTGTCTTTC,2.57
9,CCCAGTGCTCTCTCCTGCATTCCTGTCCAC,0.573
10,CTCCACTCTCATAAAAGAGGCCAATTTCTT,0.664
11,TGAGACTTTCCTGTTGGGGAGCAAAGGTTA,5.31
12,ATAGTTTGACTTTCTCTCTTCCTATTCAGA,-1.05
13,TCTGCCATCTACTAAGTGCTTAGTATGTGC,1.11
14,AGGTGTTCTTTCCCTCCAGCCCACTTACCA,2.05
15,CATAATTGCAAAATCCTTAGCAAATAGAGA,-1.14
16,TTGGAAAAAAAAAAAAAAAAAAGAACACAG,-1.08
17,GCATGCCATTTTGCAATTGACAAATGGCTT,-0.987
18,TCTGGATGGCTGAGCTGTAAGGACATAAGC,-0.971
19,CTCCAGGGACTGAGGGAGGGAGGAGGGACT,-1.08
20,CTCCAAGGGTATAGGATAAGGAATGAAGCA,-0.684
21,ACTCCGGGGAGCAGGCAGAGGAACAGAGGG,-1.04
22,CTGTTCACATGCTAATTACGGGCAGAGCTG,-0.0137
23,TCTCAGTGGGTGGGAAAGGGTGCTCCAGGC,-1.02
24,TTCCTTATCTGGAATTCCTCCTCCTGTTTG,0.849
25,TGAAATTCAACAGAACTGTTTGAGGGTAAA,0.467

row,Sequence,binding signal (log2 normalized intensity)
1,GCCCAAGATAACCTCCCCTCTGACCAGAGA,1.94
2,GTACAGGCAGTGACTGGACCACGATCAGCC,-1.09
3,TGAAGGCAGGGCTTTTCCATTGACAGTCCA,-1
4,GGGAGTTGGGGTCCAAAGTCTTTGTTCCTA,3.82
5,CCTGGGGCCTTGGGCCACCTGAGACAGTTT,-1.03
6,TGATAAGCAGTGTGGACTTTTTCCTGAGGG,1.08
7,AATTCTTAAGCCAAAGTCCAAGTTGGTGAG,3.05
8,AGCACGATGAATAGGGACGTTCTACTTGTT,0.187
9,CAAACAATGAGAGGCAACATTCCCAGTTAT,-1.11
10,TCAAGTCATAACTGGATGGTGCCTATTTGT,0.992
11,TTTGGACCTGGCCTGCGGGGTCAGGCCGTG,1.95
12,TGCCATTTATCAGTGATTTCTCTTCCATCT,0.463
13,TGCAAGGTTCTCTCTTCTTCCCCTCCTTCA,2.15
14,TTGAGAAGCAGGAGCATGGGGGATGGGGCC,-1.16
15,CTCCCAGAGGTCGATCTGATCTTAAGTTGT,1.09
16,TCAAGACCGATTGTGTTTTAGGCAAACATT,0.894
17,ACTCAGGATACCTAAGCCCCATGCTGATAA,1.32
18,ACATTGCAAATCTCTTCTTCCTTTCTATCA,0.334
19,AAGGGGGGTGGGGAGGCAGGTGGCTACATG,-0.973
20,AACTGCAAGGAAATCTGGGAAATGTAGCTT,-0.9
21,ACTGAACCCAGGCATACTCAGTTATCAACC,-0.997
22,ATGGCCGCTCCGCGAGGTGAGCCATTGGCT,-1.1
23,GAGCAAAAAGGCCGTTCAAAGGCAGCCTTC,-1.21
24,CCCTATGTGTTTCTTCTGCTTCCCTAGGGA,-0.0765
25,TCCGGAGAACACGGAGTCCTTCTGGGGCTA,-1.11

row,Sequence,binding signal (log2 normalized intensity)
1,AGAGCATCTGAGTGTCAAAAACAATACCAG,-1.14
2,GGCGACATCAAAGCATTTGGAGATTGCCAC,-1.03
3,GCATTCCACCAAATCTTACCTAAGGAAGTT,-0.954
4,TTATCTTGGAACCTCAAGAGGAGAAGAATT,-0.919
5,AGATTGCTCAGAGGCACAGTCTGCTTTCAG,-1.18
6,TATCTCGTCACCTTTATCGAACCTATTGTT,1.33
7,CTTTGTTTACTTAACCTTTGATCATATGCA,5.18
8,TTGGCAATTACCCAACAGACTTTCCCCCTA,4.12
9,AAGCATGTGATCTACTCCCTGTTCTTACAC,-0.242
10,CTGTCTAATTTTGCACAGCCAGCCTGAGGC,-1.06
11,TCACACACACACACACACACACCCCACACA,1.75
12,CTGTACCCTATGCACCCCACAGTGCTGTTT,1.52
13,CTTGGTGCCTCTGAGCTAAGATAACCATCA,-1.23
14,TAGCTAAGCTTCACTGACATTCCAGCCACT,-1.27
15,AAACAGGGACAGATGTTTGGTTGAGCAAGC,-1.1
16,GGTGGGGCCGGGGTGGTGGTTACCGGCAGA,-0.0457
17,GATCGAAAGGACATTGTCCATCACCTGGCT,-1.14
18,GGTCAGACATGGCTGTATGTGACATGGACA,1.49
19,TCGGCTGCCTCTCCAAACAAATTGAGAAAG,-0.863
20,TAGAGGGTAAACAGCCTCTAAGCACGGCCA,-1.21
21,CCAAAGCTACACAGATAAGCCATTCGTAAC,-1.18
22,TGAATTTGGTACCTCCCCCCACACCATTAG,5.05
23,TTCTGGAGGTGAGAAGCCTGAAATGAGTTT,-0.773
24,ATAAACAGAAGCAATCACAAGGAATGCCCT,-1.1
25,CCCTGCCCTCAGGGAATCCTGCATTATCAG,-0.189

row,Sequence,binding signal (log2 normalized intensity)
1,AAGGGTGAAAAGATAGCTTGAGGCCAGCTC,-1.08
2,GCCGGAGGGGAGGTTATCTCGGGGCTGGCA,-1.16
3,AACCACCACTGGGCAATTGGTTTCCGCTAA,-1.15
4,AGAAGGCAGCCGATTAACACAAAAAGGCAG,-1.15
5,CTATGTCCCTGACTGTGTGGCTTGCCTCTC,-0.58
6,CCACTTTGAATCAGGAGAGCATCTGAGTGT,1.15
7,GCTGTAGTGTGTAAGTATGCTCACTGACCT,3.01
8,CTAAGAGATTTGAATATGTACATGGACTTT,6.19
9,GTGTGCTGAGAGTTGGAAAATGTCGTTTTC,0.716
10,CTTGGGTATCAGATAGTCCAATGTCCAGAA,3.75
11,TTATATCAGAGGAATGTCTGACCAACCTGT,0.0786
12,TGTGACCTTTGGAAGGTGGGGGAGGAGACA,3.03
13,ACTACTGCTTTAGGCCTCAAGACAAACAAT,-1.13
14,TGCTTGGCCTCTCCACTTGGGTATCAGATA,0.354
15,GAATAATCCCCTCCTGGACTTTGGTCTCAT,7.15
16,TCTGACCAGGCTGATTTAGCTATTTGACCT,4.02
17,GAGAGAATGACCCTTGCTTGACCCATTATG,2.36
18,ACCCGTGCTTGGAATGCTATTTGCATTGAC,1.11
19,CCCCTGGCCTCACCCTTGTCCCTGAGGCTG,1.89
20,AAGTCCACGTGAGAGGGTCGTGATCGATTG,1.76
21,CAGGAGATGTGTGAAGGACACAGAATGACT,-1.28
22,CACACTGCAGCAAAACTTTAGGACTTTGAA,3.31
23,TCCCCATTCCTAAGTTCCAAAGGCCATCCA,2.83
24,TAAACAACACAGAACTAGCCAGACCTGTTC,-1.15
25,GATCAAGCAGGTGACCTTCGATCACCTCAA,4.61

row,Sequence,binding signal (log2 normalized intensity)
1,GAGCAGTGGGAGGTGAGGAAAACGGAGACA,-1.11
2,TGCCTCCTAAGGCCTCCAGAAGGAATGCAG,-1.07
3,CCCCCAGTGCACCTTAATAAGCACATTCCT,0.681
4,AGGAGTACACACCATAAGAGGCTCTAGATC,-0.923
5,AGAGCAGTGGAAGACAAATGATAATACTTA,-1.08
6,GGCTGATTGGCAGGCATTCCACACTGCAGG,-1.14
7,CAAGGAGGCTGAAGAAGTTGCTCAGTGTTC,0.637
8,GCAGTTTTTGATCAAGGAGGACTTTGGAAT,6.4
9,ATGCATAGAAGTATGTCTGGGATTTGAAGG,-0.542
10,GTTACTGTGTTCCTTTTATCTTACATGCCT,1.29
11,TGCAGAGCTTGCTCTCACCAGCTTCTTCTC,-0.996
12,GGGGGAGGGGACTTCGCTGGAGGTGTTAAA,-0.864
13,TCTGGAATGTGGAGAATGGCAAGAGATAAG,0.129
14,CTTATCAGCAGATAAGGGCAGAGAGGCTGC,-1.1
15,AAAAGACCAAAAAGGCTAACTTACCCGCTT,-1.1
16,TGATGCCCTTTGGCCTTTCTAATTATTTAC,3.63
17,GAGAAGGGTGGGAATTGGGATAGCAAAGGG,-0.717
18,CAACTCCAAAGTCCAAAGTCCAGTCTTATC,8.27
19,AGCTCTGCAATAGAGCCACATTCTGAGACT,-1.09
20,TTCAAAGTTCAGTTTGATTACTTGGCACTT,1.01
